# Laboratory results as given in a collection of fitness landscapes (doi:10.1016/j.celrep.2020.107928).
# The full ranking holds about 81,000 sequences; the median of “one-hybrid fitness for binding parS DNA” is about -0.17, and the highest 2% start at about 0.51. This is one part of the list.
# B1: Caulobacter ParB omega fusion; a variant is named by its letters at X, in order, B8GW30 (parent)
# chain: MESVVVGEPGMSEGRRGLGRGLSALLGEVDAAPAQAPGEQLGGSREAPIEILQRNPDQPRRTFREEDLEDLSNSIREKGVLQPILVRPSPDTAGEYQIVAGERAWRAAQRAGLKTVPIMVRELDDLAVLEIGIIENVQRADLNVLEEALSYKVLMEKFERTQENIAQTIGKSXSHVANXMRLLXLPDEVQSYLVSGELTAXHARAIAAAADPVALAKQIIEGGLSVRETEALARKAPNLSAGKSKGGRPPRVKDTDTQALESDLSSVLGLDVSIDHRGSTGTLTITYATLEQLDDLCNRLTRGI
# Variants of: B1
# Assay: one-hybrid fitness for binding parS DNA (scaled: cognate 1, non-cognate 0); higher = stronger binding
# Conditions: with parS DNA site
# How it was run: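 Fitness is the rescaled log change in variant-to-wild-type read ratio, measured by Illumina sequencing of plasmids before and after bacterial one-hybrid selection. The scale puts cognate at 1 and non-cognate at 0. Selection of Caulobacter ParB libraries, four specificity codons randomised, took place in E. coli USO with a HIS3 reporter, site 19 bp from the promoter, over 48 hours at 37°C on M9-minus-histidine with 0.1 mM IPTG and 5 mM 3-AT.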
row,Variant,one-hybrid fitness for binding parS DNA
1,QQQT,≤ 0.2
2,TPLS,≤ 0.2
3,GVNY,≤ 0.2
4,FYAG,≤ 0.2
5,VIPL,≤ 0.2
6,TKTQ,≤ 0.2
7,KECR,≤ 0.2
8,ETST,≤ 0.2
9,SCDG,≤ 0.2
10,MNSC,≤ 0.2
11,GPCR,≤ 0.2
12,ARPH,≤ 0.2
13,DVNH,≤ 0.2
14,TKIV,≤ 0.2
15,LQIG,≤ 0.2
16,TIDL,≤ 0.2
17,QREN,≤ 0.2
18,THLQ,≤ 0.2
19,IHFR,≤ 0.2
20,GPSW,≤ 0.2
21,SKRV,≤ 0.2
22,CCIK,≤ 0.2
23,VTPC,≤ 0.2
24,LVRM,≤ 0.2
25,KNYG,≤ 0.2

row,Variant,one-hybrid fitness for binding parS DNA
1,SVPY,≤ 0.2
2,VEDW,≤ 0.2
3,IHWS,≤ 0.2
4,ACTL,≤ 0.2
5,NLPG,≤ 0.2
6,LPVT,≤ 0.2
7,QTLQ,≤ 0.2
8,VCDS,≤ 0.2
9,SHET,≤ 0.2
10,LMPE,≤ 0.2
11,HYVG,≤ 0.2
12,LFAR,≤ 0.2
13,NLDC,≤ 0.2
14,SRPS,≤ 0.2
15,EMAS,≤ 0.2
16,HRFG,≤ 0.2
17,WMQV,≤ 0.2
18,HTNK,≤ 0.2
19,FYLF,≤ 0.2
20,NLHS,≤ 0.2
21,AFAL,≤ 0.2
22,PTQN,≤ 0.2
23,KLSN,≤ 0.2
24,PETS,≤ 0.2
25,SCTA,≤ 0.2

row,Variant,one-hybrid fitness for binding parS DNA
1,KMAL,≤ 0.2
2,RLWL,≤ 0.2
3,SPSQ,≤ 0.2
4,CPYS,≤ 0.2
5,ERRM,≤ 0.2
6,LLVR,≤ 0.2
7,YALM,≤ 0.2
8,YTDR,≤ 0.2
9,TRKF,≤ 0.2
10,HELP,≤ 0.2
11,VRAR,≤ 0.2
12,PFTT,≤ 0.2
13,KSML,≤ 0.2
14,AGVY,≤ 0.2
15,RYSD,≤ 0.2
16,AGDC,≤ 0.2
17,STTQ,≤ 0.2
18,SMTG,≤ 0.2
19,AQLV,≤ 0.2
20,RKLW,≤ 0.2
21,SDAT,≤ 0.2
22,CLGK,≤ 0.2
23,NPGL,≤ 0.2
24,PSDR,≤ 0.2
25,EMMK,≤ 0.2

row,Variant,one-hybrid fitness for binding parS DNA
1,PVLT,≤ 0.2
2,YWNR,≤ 0.2
3,SNES,≤ 0.2
4,DTDG,≤ 0.2
5,CECT,≤ 0.2
6,TTRY,≤ 0.2
7,QDKG,≤ 0.2
8,TKPS,≤ 0.2
9,DAVT,≤ 0.2
10,RGIR,≤ 0.2
11,MQPL,≤ 0.2
12,LSAC,≤ 0.2
13,QHDG,≤ 0.2
14,VPFM,≤ 0.2
15,RRPA,0.574
16,AQLP,≤ 0.2
17,EIWR,≤ 0.2
18,RDCR,≤ 0.2
19,RQAA,0.571
20,KAYV,≤ 0.2
21,THKK,≤ 0.2
22,NPVS,≤ 0.2
23,NMTT,≤ 0.2
24,RKMR,≤ 0.2
25,YMVW,≤ 0.2

row,Variant,one-hybrid fitness for binding parS DNA
1,WHDS,≤ 0.2
2,ASHC,≤ 0.2
3,SCYE,≤ 0.2
4,FGAG,≤ 0.2
5,EIVW,≤ 0.2
6,SVTC,≤ 0.2
7,ECNW,≤ 0.2
8,MYQC,≤ 0.2
9,QNHS,≤ 0.2
10,QYMY,≤ 0.2
11,MKKS,≤ 0.2
12,HTLY,≤ 0.2
13,KWPV,≤ 0.2
14,DRQC,≤ 0.2
15,PMTF,≤ 0.2
16,IWSI,≤ 0.2
17,YAEN,≤ 0.2
18,GNNY,≤ 0.2
19,FIVL,≤ 0.2
20,KSGT,≤ 0.2
21,MIQS,≤ 0.2
22,KTYI,≤ 0.2
23,SMCC,≤ 0.2
24,FFCS,≤ 0.2
25,TQYT,≤ 0.2

row,Variant,one-hybrid fitness for binding parS DNA
1,AHVV,≤ 0.2
2,VDLL,≤ 0.2
3,PTKR,≤ 0.2
4,VLAI,≤ 0.2
5,SRDS,≤ 0.2
6,YETY,≤ 0.2
7,DRVS,≤ 0.2
8,KTWV,≤ 0.2
9,LIGC,≤ 0.2
10,PTAS,≤ 0.2
11,VQLC,≤ 0.2
12,IASR,≤ 0.2
13,ERQV,≤ 0.2
14,MFTR,≤ 0.2
15,VVGR,≤ 0.2
16,VRSR,≤ 0.2
17,NSTR,≤ 0.2
18,SLDD,≤ 0.2
19,KFYR,≤ 0.2
20,IGNL,≤ 0.2
21,DWGL,≤ 0.2
22,HGAS,≤ 0.2
23,DLMS,≤ 0.2
24,VGKG,≤ 0.2
25,RFTQ,≤ 0.2

row,Variant,one-hybrid fitness for binding parS DNA
1,HKLD,≤ 0.2
2,EHVN,≤ 0.2
3,PWWR,≤ 0.2
4,IVMS,≤ 0.2
5,SRCG,≤ 0.2
6,LHSW,≤ 0.2
7,CHPV,≤ 0.2
8,QHLH,≤ 0.2
9,ARMD,≤ 0.2
10,MLGT,≤ 0.2
11,RISQ,≤ 0.2
12,LCKS,≤ 0.2
13,ERRE,≤ 0.2
14,SFFN,≤ 0.2
15,WQKE,≤ 0.2
16,LGRL,≤ 0.2
17,RYWG,0.89
18,RCRR,≤ 0.2
19,LDDF,≤ 0.2
20,QDDS,≤ 0.2
21,DKAT,≤ 0.2
22,KVGK,≤ 0.2
23,KKSN,≤ 0.2
24,CTRM,≤ 0.2
25,PCMM,≤ 0.2

row,Variant,one-hybrid fitness for binding parS DNA
1,AKLE,≤ 0.2
2,QNRA,≤ 0.2
3,PTMI,≤ 0.2
4,FERR,≤ 0.2
5,PCLN,≤ 0.2
6,GAQT,≤ 0.2
7,RCMD,0.215
8,LILA,≤ 0.2
9,QWHL,≤ 0.2
10,RGIN,≤ 0.2
11,PFYR,≤ 0.2
12,EATY,≤ 0.2
13,NTRR,≤ 0.2
14,HRCA,≤ 0.2
15,QWNG,≤ 0.2
16,KMGN,≤ 0.2
17,YSCP,≤ 0.2
18,QRPV,≤ 0.2
19,SDPS,≤ 0.2
20,TDMG,≤ 0.2
